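48-hour exposure; five concentrations; linearly interpolated endpoints. The concentration for 50% growth inhibition is given as GI50. TGI marks complete inhibition of growth.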 Peptide text beside a SMILES is read from it.
Tested on: NCI-H322M lung
Experiment: NCI anticancer screen, dose series, 48 h

| Compound | TGI [µM] | GI50 [µM] |
| --- | --- | --- |
| Cc1nc(-n2nc(-c3ccccc3)cc2-c2ccccc2)sc1C(=O)CC(=O)C(=O)Nc1ccc(O)cc1 | > 100 |  |
| O=C1CC2OCC=C3CN4CCC5(C(=O)O)C(N1)C2C3CC45 (stereo not given) | > 100 |  |
| CC(=O)c1c(O)cc(O)c(-c2c(C)cc(O)c3c2C(=O)c2cccc(O)c2C3=O)c1O | 28.4 |  |
| CC(=O)/C(=C/N1CCN(C(=O)c2ccco2)C1=S)C(=O)c1ccccc1 | > 50 | 27.9 |
| CNC(=O)c1cc(-c2ccc(F)cc2)cc(-c2ccc(S(=O)(=O)N3CCCC3)cc2)c1N | > 25 | > 25 |
| C=C1CC(O)C2C(=C)C(=O)OC2C2C(C)C(=O)CC12 (stereo not given) | > 100 |  |
| CC1=NN2CCC(=O)N=C2S1 | > 100 |  |
| CC1=CC(=O)N2C(OC[C@@H]2c2ccccc2)O1 (stereo not given in full) | > 100 |  |
| COC(=O)Nc1nc2ccc(C(=O)c3cccs3)cc2[nH]1 | > 100 | > 100 |
| Cc1cc(S(=O)(=O)Nc2n[nH]c(Nc3ccccc3)n2)c(SSc2cc(Cl)c(C)cc2S(=O)(=O)Nc2n[nH]c(Nc3ccccc3)n2)cc1Cl | > 100 |  |
| O=C(/C=C/c1ccc(Cl)cc1Cl)c1ccc(Cl)cc1Cl | > 89.8 | 39.6 |
| N#Cc1c(N2CCCC2)nsc1Nc1ccccc1 | > 100 |  |
| Cc1cc(OCC(O)CO)ccc1Cl (stereo not given) | > 100 |  |
| COC(=O)C(=O)C(C#N)c1c(Cl)cccc1Cl (stereo not given) | > 100 |  |
| O=C(NNc1nc(-c2ccccc2)cs1)Nc1ccccc1 | 64.7 |  |
| CNC(=O)C1OC(n2cnc3c(NCc4cccc(I)c4)nc(Cl)nc32)C(O)C1O (stereo not given) | 30.6 |  |
| ClC1=C(Cl)C2OC3C=CCC3OC2C(Cl)=C1Cl (stereo not given) | > 100 |  |
| COc1cc([C@@H]2c3cc4c(cc3[C@@H](NCc3cccc(F)c3)C3COC(=O)[C@@H]32)OCO4)cc(OC)c1O (stereo not given in full) | > 65 |  |
| O=C1C=CC(=O)c2c(O)c(N(CCCl)CCCl)c(Cl)c(O)c21 | > 10 |  |
| CSc1c(C)n([O-])c2cc(Cl)c(Cl)cc2[n+]1=O | 65.3 |  |
| Cn1cccc1-c1cc(-c2ccccc2)nc(N)c1C#N | > 100 | > 100 |
| C#C[C@@H](CCCC)OC(=O)N[C@H](C)c1ccccc1 | > 100 |  |
| COC(=O)c1cc(C)[nH]c2c(C)cc3nc4ccccc4c3c12 | 31.4 | 16.5 |
| Cc1cn2cc(-c3ccc4c(c3)CC(=O)N4)nc2s1 | > 100 | > 100 |
| Cc1ccc(C(=O)N/N=C(\N=Nc2ccccc2C(=O)O)c2ccc(N(C)C)cc2)cc1 | > 100 |  |
| COc1ccc(C2C3=C(COC3=O)N(CCO)c3cc4c(cc32)CCC4)cc1 (stereo not given) | > 50 | 11 |

| Compound | TGI [µM] | GI50 [µM] |
| --- | --- | --- |
| O=C1/C(=C/c2ccc(O)cc2)Oc2ccccc21 | > 100 |  |
| CC1C(c2ccccc2)NC(c2ccccc2)CC1(N)C#N (stereo not given) | > 100 |  |
| Cc1nc2sc(C(=O)Nc3ccccc3)c(N)c2cc1C(=O)c1ccccc1 | > 50 | 3.89 |
| CSCC[C@H](NC(=O)[C@@H](N)CC(N)=O)C(=O)N[C@@H](Cc1c[nH]c2ccccc12)C(=O)N[C@@H](CCC(N)=O)C(=O)N[C@@H](CCC(=O)O)C(=O)N[C@H](C(=O)NCC(=O)N[C@@H](CCCCN)C(=O)N[C@H](C)C(=O)O)C(C)C (HELM PEPTIDE1{N.M.W.Q.E.V.G.K.[dA]}$$$$V2.0) | > 100 |  |
| COC(=O)C(CNC(=O)/C=C/c1ccc(OC(C)=O)c(OC(C)=O)c1)NC(=O)/C=C/c1ccc(OC(C)=O)c(OC(C)=O)c1 (stereo not given) | > 100 |  |
| c1ccc(OCc2nnc(CCCCCCCCc3nnc(COc4ccccc4)o3)o2)cc1 | > 100 |  |
| CCCCCC/C(CC(=O)CCC(=O)NCCc1ccccc1)=N\Nc1ccc([N+](=O)[O-])cc1[N+](=O)[O-] | > 100 |  |
| Cn1c(-c2c(C3=CC(=O)N(c4ccccc4)C3=O)c3ccccc3n2C)cc2ccccc21 | > 100 |  |
| COc1ccc(/C=C/C(=O)c2ccc(Nc3nc(Nc4ccc(F)cc4)nc(Nc4ccc(F)cc4)n3)cc2)cc1 | > 100 | 14.5 |
| COC(=N)CCCl | > 100 |  |
| O=S(=O)(Nc1ccc(Cl)c(Cl)c1)c1ccc(-c2cnc(C3CC3)o2)cc1 | 27.3 | 4.66 |
| Clc1ncnc2c1nc(C#Cc1ccccc1)n2C1CCCCO1 (stereo not given) | 3.24 |  |
| CC(C)=C=CP(=O)(O)c1ccccc1 | > 100 |  |
| Cc1cc2nc(-c3ccc(O)c(O)c3)n(Cc3ccc(O)c(O)c3)c2cc1C | > 100 | 30.4 |
| CCOC(=O)C1=C(C)N(Cc2ccccc2)C2(O)C(OC)CC(=O)C3C(=O)N(c4ccccc4)C(=O)C132 (stereo not given) | 36.6 |  |
| Cc1nccn1S(=O)(=O)c1ccc(Cl)cc1 | > 100 |  |
| CCOC(=O)C1CCCN1C(=O)c1ccccc1Cl (stereo not given) | > 100 |  |
| NC1=C(O)C(=O)C(c2c[nH]c3ccc(OCc4ccccc4)cc23)O1 (stereo not given) | > 100 |  |
| C1CC[N-]CC1.CC(=N\O)/C(C)=N/O.CC(=N\O)/C(C)=N/O.C[CH-]C(C)O.[Co+2] | > 100 | 55.7 |
| Cc1c(C2CCSc3ccccc3N2)sc2ccccc12 (stereo not given) | > 100 |  |
| CCN(CC)C(=O)c1cc([N+](=O)[O-])c(=O)n2c1[nH]c1ccccc12 | > 100 |  |
| C/C(=N\Nc1n[nH]c(=S)n1N)c1c(O)cc(C)oc1=O | > 100 |  |
| O=C1Nc2ccccc2SC1=C(C(=O)c1ccccc1)C(=O)c1ccccc1 | > 100 |  |
| NS(=O)(=O)c1ccc(NCc2nc3ccccc3[nH]2)cc1 | > 100 |  |
| CS(=O)(=O)CCNCc1ccoc1-c1ccc2ncnc(Nc3ccc(OCc4ccccc4)cc3)c2c1 | > 25 | 5 |
| CCCCCCCCCCCCCCCCCCNc1nc(=O)n(C2CC(OP(=O)(O)OCC3OC(n4cc(F)c(=O)[nH]c4=O)CC3O)C(CO)O2)cc1F (stereo not given) | > 100 |  |

| Compound | TGI [µM] | GI50 [µM] |
| --- | --- | --- |
| COc1ccc(/C=C(/c2ccc(OC)cc2)c2c(Cl)cc(Cl)c(/C(=C\c3ccc(OC)cc3)c3ccc(OC)cc3)c2N=Nc2ccccc2)cc1 | > 100 |  |
| CCOC(=O)C(=O)Nc1nc2ccc(C)cc2s1 | > 100 |  |
| Cc1ccc(S(=O)(=O)N/N=C\c2c3ccccc3[n+](C)c3ccccc23)cc1 | > 100 |  |
| CC1(C2CCC3(C)C(C2)C3Sc2ccccc2)OCCO1 (stereo not given) | 87.4 |  |
| Cc1cc(O)c(C(C)C)cc1C(=S)Nc1ccc(Cl)cc1 | 29.5 |  |
| CCN(CC)CCNc1ccc([N+](=O)[O-])c2nc3ccc(OC)cc3c(N)c12 | 2.72 |  |
| NC(=S)NS(=O)(=O)c1ccc(Cl)cc1 | > 100 |  |
| CCOC(=O)N(O)c1ccc(/C=C/c2ccccc2)cc1 | 57.8 | 11.4 |
| CN(C)CCOc1ccc2c(c1)C(=O)/C(=C\c1ncc([N+](=O)[O-])n1C)C2 | 1.89 | 0.476 |
| COC1CC(n2cc(F)c(N)nc2=O)OC1CO (stereo not given) | > 100 |  |
| Cc1ccc([N+]2=NC(c3ccccc3)=NN(c3ccccc3)C2)cc1 | > 100 |  |
| CCSc1nc(N)c2cnn(CC)c2n1 | 56 | 5.45 |
| CCCCOc1ccc(S(=O)(=O)/N=C(\NO)Nc2ccc(Cl)cc2)cc1 | 29.6 |  |
| COc1ccc(C2NC(N)=C(C#N)C3=C2C(C)CCC3)cc1OC (stereo not given) | > 100 |  |
| CCCCCCCCCCOc1ccc(N=Nc2nnc(-c3ccc(OCCCCC)cc3)s2)cc1 | > 100 |  |
| Cc1c(Cl)cccc1NC(=O)C(=O)c1c(O)c2ccc(O)cc2oc1=O | > 100 |  |
| CC(CC(=O)Nc1ccc(NC(=O)CC(C)N=NC(N)=O)cc1)N=NC(N)=O (stereo not given) | > 100 |  |
| CC/C(C)=C1\CCC(CN(C)C)C1=O (stereo not given) | > 100 |  |
| CCN(CCC#N)C(=O)Nc1ccccc1 | > 100 |  |
| COc1ccc(/C=C2\OC(=O)C(Cl)=C2c2ccc(OC)c(Cl)c2)cc1 | > 100 |  |
| COc1ccc(C2=NN(c3nsc4ccccc34)C(=O)CC2)cc1 | > 100 |  |
| C[C@@H]1Cc2c(ccc3[nH]ncc23)[C@@H](c2ccc(NC3CN(CCCF)C3)cn2)N1CC(F)(F)F | > 100 | 35.9 |
| CCCCOP1(=O)CC(C)=C(Cl)C(C)(OC)C1 (stereo not given) | > 100 |  |
| COc1cc(CCc2ccncc2)cc(OC)c1OC | > 100 |  |
| N#CNC1=NCCC(=O)N1CCc1c[nH]c2ccccc12 | > 100 |  |
| COc1cc(-c2nc(SC)nc3c2CCc2ccccc2-3)cc(OC)c1OC | > 100 |  |

| Compound | TGI [µM] | GI50 [µM] |
| --- | --- | --- |
| CCOC(=O)CC(C)C1(C=O)CCCCC1=O (stereo not given) | > 100 |  |
| CCCC(=O)OC(OC(=O)CCC)c1ccc([N+](=O)[O-])o1 | > 100 |  |
| Nc1ccc(C(=O)O)cc1 | > 100 |  |
| NC(=O)c1nc(-c2ccc(Cl)c(Cl)c2)nc2ccccc12 | > 100 |  |
| Cc1c2ccccc2c(C)n2c1nc1cc(Cl)c(Cl)cc12 | > 100 | > 100 |
| Oc1ccc(O)c(-n2cccn2)c1-n1cccn1 | > 100 |  |
| O=[N+]([O-])c1ccc2nc(-c3ccc(Cl)cc3)[nH]c2c1 | 91.8 |  |
| O=NNc1c[nH]c(=O)[nH]c1=O | > 100 |  |
| CN1C/C(=C\c2ccc(C(=O)O)cc2)C(=O)/C(=C/c2ccc(C(=O)O)cc2)C1 | > 100 |  |
| Cn1c2ccccc2c2c3c(c4c5ccccc5n(C)c4c21)C(=O)N(c1ccccc1)C3=O | > 100 |  |
| CCOC(=O)CCC(NC(=O)c1ccc(Nc2nc3ccccc3nc2C(=O)OCC)s1)C(=O)OCC (stereo not given) | > 100 |  |
| CC(=O)[O][Hg][c]1s[c]([Hg][O]C(C)=O)[c]([Hg][O]C(C)=O)[c]1[Hg][O]C(C)=O | 27.4 | 13.3 |
| O/N=C1\C(=C\c2ccc3c(c2)OCCO3)CCCC1C(NO)c1ccc2c(c1)OCCO2 (stereo not given) | 35.2 |  |
| OC(CCl)CN1CC[N+]2(CC1)CC[N+]1(CCN(CC(O)CCl)CC1)CC2 (stereo not given) | > 50 |  |
| N#Cc1cc2c(cc1Cl)SC(=Nc1ccccc1)N(S(=O)(=O)c1ccc(Br)s1)S2(=O)=O | 62.5 | 26.1 |
| CSc1nc2ccc(C)cc2cc1/C=C1/C=C(c2ccccc2)NC1=O | > 100 | 5.94 |
| Cc1ccc2c(=O)cc(-c3cccc(F)c3)[nH]c2n1 | > 100 |  |
| CN(C)Cc1cc(C(C)(C)C)cc(CN(C)C)c1O | > 100 |  |
| CC(C)(NC(=O)C(C)(C)NC(=O)OCc1ccccc1)C(=O)O (HELM PEPTIDE1{[O=C(OCc1ccccc1)[*:2]].[Aib].[Aib]}$$$$V2.0) | > 100 |  |
| NNS(=O)(=O)c1ccc(/C=C2\NC(=O)NC2=O)cc1 | > 100 |  |
| O=c1[nH]c2ccc(C(F)(F)F)cc2nc1C(F)(F)F | > 100 |  |
| Cc1ccc(C)c2c1n1c(=O)n(C)c(=O)n21 | > 100 |  |
| Cc1ccc(S(=O)(=O)NC(=O)NC(CC(=O)O)C(=O)O)cc1 (stereo not given) | > 100 |  |
| C[C@H]1CC[C@@H]2[C@@H](C)[C@H]3[C@H](C[C@H]4[C@@H]5CC=C6C[C@@H](O)CC[C@]6(C)[C@H]5CC[C@]34C)N2C1 | > 100 |  |
| CCN1CCC(O)(/C=C/c2ccccc2)C(C(=O)/C=C/c2ccccc2)C1 (stereo not given) | 17.9 |  |
